The text below walks through data of PubChem BioAssay (NCATS).

The structures appear in SMILES notation. Results filed as inconclusive are left out. Unless noted, the call rests on the fitted dose curve. The source holds several records for some structures; these can differ, active in one and inactive in another. For part of its entries the source gives two or more results. This list holds those alone. The source may hold further records. Values that stand side by side are repeats (runs, samples, wells, individuals or studies). A tag in brackets gives the origin of a value. Letters count within one entry. Counts like (3×) count equal records among those shown.

Assay [1] in a line: qHTS for Inhibitors of the Functional Ribonucleoprotein Complex (vRNP) of Lassa (LASV) Arenavirus: Viability assay - alamar blue signal for LASV Primary Screen (AID 1347083; calls by dose curve; tested in HEK293 reporter line; further: nearly all actives have a fitted effect of over 80% in size). On the technique in general: In qHTS, concentration-response curves come from the screen itself.
The nature of assay [2]: qHTS of pediatric cancer cell lines to identify multiple opportunities for drug repurposing: Primary screen for SK-N-SH cells (AID 1347098; active means well fitted curve in the direction sought with a large enough effect; an effect the other way counts as inactive or inconclusive; further: nearly all actives have a fitted effect of over 65% in size). In a few lines: (§1)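 Cells (500-1,000/well) rested 5 h, then received compounds for 48 h; metabolically active cells were measured by CellTiter-Glo luminescence. Final concentrations spanned up to 46 µM (MIPE, 11-point) or 0.59 nM-46 µM (NPC, 8-point) in primary screens, 11-point in follow-ups.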

Assay [3] can be described thus: qHTS for Inhibitors of the Functional Ribonucleoprotein Complex (vRNP) of Lassa (LASV) Arenavirus: LASV Primary Screen - GLuc reporter signal (AID 1347082; calls by dose curve; tested in HEK293 reporter line; further: nearly all actives have a fitted effect of over 60% in size).
Assay [4] in a line: qHTS for Inhibitors of the Functional Ribonucleoprotein Complex (vRNP) of Lymphocytic Choriomeningitis Arenaviruses (LCMV): Viability assay - alamar blue signal for LCMV Primary Screen (AID 1347085; calls by dose curve; tested in HEK293 reporter line; further: nearly all actives have a fitted effect of over 80% in size).
Assay [5] addresses Nucleoprotein (Lymphocytic choriomeningitis virus (strain Armstrong)) (UniProt P09992). As to the kind of experiment: qHTS for Inhibitors of the Functional Ribonucleoprotein Complex (vRNP) of Lymphocytic Choriomeningitis Arenaviruses (LCMV): LCMV Primary Screen - GLuc reporter signal (AID 1347086). Further: nearly all actives have a fitted effect of over 70% in size.
Sequence of UniProt P09992 (P09992 whole entry, looked up): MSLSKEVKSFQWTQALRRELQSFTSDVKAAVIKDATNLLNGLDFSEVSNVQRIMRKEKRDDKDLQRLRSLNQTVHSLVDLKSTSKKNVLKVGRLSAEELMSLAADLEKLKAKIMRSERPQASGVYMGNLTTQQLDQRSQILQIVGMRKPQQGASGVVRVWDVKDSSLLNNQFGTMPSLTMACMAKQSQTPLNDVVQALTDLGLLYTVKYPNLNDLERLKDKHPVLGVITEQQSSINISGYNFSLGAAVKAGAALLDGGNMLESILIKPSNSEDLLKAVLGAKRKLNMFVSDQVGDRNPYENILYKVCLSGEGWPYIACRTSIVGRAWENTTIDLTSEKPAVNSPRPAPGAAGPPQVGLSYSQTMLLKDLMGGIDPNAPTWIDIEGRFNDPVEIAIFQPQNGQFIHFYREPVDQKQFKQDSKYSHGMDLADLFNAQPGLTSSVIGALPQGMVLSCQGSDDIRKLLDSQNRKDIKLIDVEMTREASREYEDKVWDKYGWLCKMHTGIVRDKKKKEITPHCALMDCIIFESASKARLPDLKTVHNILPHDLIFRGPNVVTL
Assay [6] is described as follows: qHTS of pediatric cancer cell lines to identify multiple opportunities for drug repurposing: Primary screen for SJ-GBM2 cells (AID 1347091; active means well fitted curve in the direction sought with a large enough effect; an effect the other way counts as inactive or inconclusive). In outline: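 Viability measured as metabolically active cells via CellTiter-Glo luminescence following 48 hours of compound exposure, 11-point dilutions in confirmatory testing. 500-1,000 cells/well plated 5 hours before dosing; controls were DMSO and 2.3 µM bortezomib.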

A short description of assay [7]: qHTS of pediatric cancer cell lines to identify multiple opportunities for drug repurposing: Primary screen for A673 cells (AID 1347092; active means well fitted curve in the direction sought with a large enough effect; an effect the other way counts as inactive or inconclusive; further: nearly all actives have a fitted effect of over 45% in size). In outline:
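Luminescence from CellTiter-Glo, taken after 15 min at room temperature, served as the proxy for metabolically active cells following 48 h treatment. Both potency and efficacy were taken from curves fitted to the titration data.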

A short description of assay [8]: qHTS of pediatric cancer cell lines to identify multiple opportunities for drug repurposing: Primary screen for NB-EBc1 cells (AID 1347095; active means well fitted curve in the direction sought with a large enough effect; an effect the other way counts as inactive or inconclusive).
Assay [9] is described as follows: qHTS of pediatric cancer cell lines to identify multiple opportunities for drug repurposing: Primary screen for Saos-2 cells (AID 1347097; active means well fitted curve in the direction sought with a large enough effect; an effect the other way counts as inactive or inconclusive; further: nearly all actives have a fitted effect of over 40% in size). In outline: (§2)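 Cells seeded at 500-1,000 cells/well in growth media, rested 5 hours at 37 degrees C, 5% CO2, then dosed; MIPE compounds at 11-point (from 0.78 nM) and NPC at 8-point (from 0.59 nM) final concentrations. Viability by CellTiter-Glo luminescence after 48 hours.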

Assay [10] is described as follows: qHTS of pediatric cancer cell lines to identify multiple opportunities for drug repurposing: Primary screen for LAN-5 cells (AID 1347100; active means well fitted curve in the direction sought with a large enough effect; an effect the other way counts as inactive or inconclusive). In a few lines: (§3)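 Viability after 48 h compound treatment at 37C, 500-1,000 cells/well, read as ATP luminescence with CellTiter-Glo. Primary screens used 11-point (MIPE, 0.78 nM-46 µM) or 8-point (NPC, 0.59 nM-46 µM) final concentrations; follow-up screens used 11-point dilutions.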

Assay [11] can be described thus: qHTS of pediatric cancer cell lines to identify multiple opportunities for drug repurposing: Primary screen for OHS-50 cells (AID 1347103; active means well fitted curve in the direction sought with a large enough effect; an effect the other way counts as inactive or inconclusive; further: nearly all actives have a fitted effect of over 40% in size). In a few lines: as §1
Assay [12] can be described thus: qHTS of pediatric cancer cell lines to identify multiple opportunities for drug repurposing: Primary screen for MG 63 (6-TG R) cells (AID 1347105; active means well fitted curve in the direction sought with a large enough effect; an effect the other way counts as inactive or inconclusive; further: nearly all actives have a fitted effect of over 50% in size). In outline: as §2
The nature of assay [13]: qHTS of pediatric cancer cell lines to identify multiple opportunities for drug repurposing: Primary screen for Rh18 cells (AID 1347102; active means well fitted curve in the direction sought with a large enough effect; an effect the other way counts as inactive or inconclusive; further: nearly all actives have a fitted effect of over 65% in size). In a few lines: as §3
The target in assay [14] is Retinoic acid receptor RXR-alpha (Homo sapiens) (UniProt P19793). Nature of the assay: qHTS assay for small molecule agonists of retinoid X receptor alpha signaling (AID 588544).
Sequence of UniProt P19793 (P19793 whole entry, looked up): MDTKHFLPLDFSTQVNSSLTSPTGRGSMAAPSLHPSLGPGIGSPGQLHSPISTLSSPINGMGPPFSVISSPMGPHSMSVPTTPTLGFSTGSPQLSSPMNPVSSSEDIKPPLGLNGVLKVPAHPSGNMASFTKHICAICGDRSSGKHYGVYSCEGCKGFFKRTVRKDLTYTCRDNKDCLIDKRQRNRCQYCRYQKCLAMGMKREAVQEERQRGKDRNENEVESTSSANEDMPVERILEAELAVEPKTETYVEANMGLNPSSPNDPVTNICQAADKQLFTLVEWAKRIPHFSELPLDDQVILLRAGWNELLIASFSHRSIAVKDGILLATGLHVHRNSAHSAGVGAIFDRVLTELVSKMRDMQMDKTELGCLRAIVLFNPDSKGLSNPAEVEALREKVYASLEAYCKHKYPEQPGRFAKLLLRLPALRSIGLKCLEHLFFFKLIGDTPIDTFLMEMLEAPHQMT
Assay [15] can be described thus: Primary qHTS for inhibitors of La Crosse Virus (LACV) - induced cell death in SH-SY5Y cells (AID 1508616; active means well fitted curve in the direction sought with a large enough effect; an effect the other way counts as inactive or inconclusive). In a few lines: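 Cytopathicity rescue screen: compounds pinned onto SH-SY5Y cells, which are then infected with LACV (MOI 0.01) and held 6 days at 37C. Percent activity is scaled between infected DMSO control and uninfected DMSO control.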
Assay [16] can be described thus: qHTS of pediatric cancer cell lines to identify multiple opportunities for drug repurposing: Primary screen for SK-N-MC cells (AID 1347093; active means well fitted curve in the direction sought with a large enough effect; an effect the other way counts as inactive or inconclusive).
Potency means the concentration at half of the fitted maximal effect.

Take `NC12CC3CC(CC(C3)C1)C2`: in assay [1], the Potency result is “inactive [sample A] and active: 19.3 µM [sample B] and inactive [sample C]”.

`N[C@@H](Cc1ccc(N(CCCl)CCCl)cc1)C(=O)O`: the Potency entry in [2] was “active: 27.3 µM [sample A] and inactive [sample B]”.

`CC#C[C@]1(O)CC[C@H]2[C@@H]3CCC4=CC(=O)CCC4=C3[C@@H](c3ccc(N(C)C)cc3)C[C@@]21C`: the Potency result in [3] was “inactive [sample A] and active: 1.22 µM [sample B]”; in [1], “inactive [sample A] and inactive [sample B] and active: 432 nM [sample C]”; in [4], “inactive [sample A] and inactive [sample B] and active: 217 nM [sample C]”; in assay [5], “inactive [sample A] and inactive [sample B] and active: 273 nM [sample C]”.

On to `O=P1(NCCCl)OCCCN1CCCl` (stereo not given), for which the Potency result in [6] was “inactive [sample A] and active: 23.5 µM [sample B]”; in assay [7] it was “inactive [sample A] and active: 18.7 µM [sample B]”.

Turning to `O=C(C1CCCCC1)N1CC(=O)N2CCc3ccccc3C2C1` (stereo not given), the Potency result in [1] is “inactive [sample A] and inactive [sample B] and active: 12.2 µM [sample C]”.

As for `Cn1cc(C2=C(c3cn(C4CCN(Cc5ccccn5)CC4)c4ccccc34)C(=O)NC2=O)c2ccccc21`, the Potency result in assay [1] is “active: 19.3 µM [sample A] and inactive [sample B]”; in assay [4] it was “active: 17.2 µM [sample A] and inactive [sample B]”; in assay [5] it was “active: 21.7 µM [sample A] and inactive [sample B]”; in [6] it was “active: 2.35 µM [sample A] and inactive [sample B]”; in assay [8] it was “active: 662 nM [sample A] and inactive [sample B]”; in assay [9], “active: 4.69 µM [sample A] and inactive [sample B]”. For the same compound, the Potency entry in assay [10] is “active: 2.35 µM [sample A] and inactive [sample B]”; in assay [11] it was “active: 3.06 µM [sample A] and inactive [sample B]”; in assay [12], “active: 11.8 µM [sample A] and inactive [sample B]”.

For `Oc1cc(Cl)ccc1Oc1ccc(Cl)cc1Cl`, the Potency result in assay [13] is “active: 31.3 µM [sample A] and inactive [sample B]”.

With `COc1cc2ncnc(Nc3ccc(F)c(Cl)c3)c2cc1OCCCN1CCOCC1`, in assay [5], the Potency entry was “active: 2.5 µM [sample A] and inactive [sample B]”.

As to `CC(C)C(=O)Nc1ccc([N+](=O)[O-])c(C(F)(F)F)c1`, the Potency entry in [5] is “inactive [sample A] and inactive [sample B] and active: 13.7 µM [sample C]”.

Take `OCCOc1ccccc1`: the Potency result in assay [14] was “inactive [sample A] and active: 15.8 µM [sample B] and inactive [sample C]”.

For `COC(=O)C1=C(C)NC(C)=C(C(=O)OC(C)C)C1c1cccc2nonc12` (stereo not given), the Potency result in assay [1] is “active: 9.68 µM [sample A] and inactive [sample B]”; in assay [4], “active: 19.3 µM [sample A] and inactive [sample B]”; in assay [5], “active: 21.7 µM [sample A] and inactive [sample B]”.

For the compound `COc1cc2c(c(OC)c1OC)-c1ccc(OC)c(=O)cc1[C@@H](NC(C)=O)CC2`, the Potency entry in assay [5] is “inactive (3×) and active: 0.7 nM [separate samples]”.

Take `CCC(C)(C)C(=O)O[C@H]1C[C@@H](C)C=C2C=C[C@H](C)[C@H](CC[C@@H]3C[C@@H](O)CC(=O)O3)[C@H]21`: the Potency entry in [1] is “inactive [sample A] and active: 24.3 µM [sample B]”; in assay [4] it was “inactive [sample A] and active: 19.3 µM [sample B]”; in assay [5], “inactive [sample A] and active: 43.2 µM [sample B]”.

Turning to `Cc1ccc(S(=O)(=O)NC(=O)NN2CC3CCCC3C2)cc1` (stereo not given), the Potency result in assay [3] is “inactive [sample A] and active: 21.7 µM [sample B]”; in [1] it was “inactive [sample A] and active: 21.7 µM [sample B]”.

As for `CCCN1CCC[C@@H]2Cc3nc(N)ncc3C[C@H]21`, the Potency result in [15] was “inactive [sample A] and active: 1.12 µM [sample B]”.

As to `CC1(CN2CCC(n3c(=O)[nH]c4ccccc43)CC2)OCc2ccccc2-n2cccc21` (stereo not given), the Potency result in assay [1] was “active: 21.7 µM [sample A] and inactive [sample B]”.

Take `CN(C)CCCN1c2ccccc2CCc2ccc(Cl)cc21`: the Potency result in assay [3] was “inactive [sample A] and active: 2.17 µM [sample B] and inactive [sample C]”; in [1] it was “inactive [sample A] and active: 1.09 µM [sample B]”; in [4], “inactive [sample A] and active: 1.22 µM [sample B] and inactive [sample C]”; in assay [5], “active: 2.17 µM [sample A] and inactive [sample B]”.

For the compound `NC(=O)NO`, the Potency result in assay [3] was “inactive [sample A] and inactive [sample B] and active: 17.2 µM [sample C]”; in [1] it was “inactive [sample A] and inactive [sample B] and active: 344 nM [sample C]”; in assay [4], “inactive [sample A] and inactive [sample B] and active: 968 nM [sample C]”; in assay [5], “inactive [sample A] and inactive [sample B] and active: 8.63 µM [sample C]”.

With `CN(C)c1nc(N(C)C)nc(N(C)C)n1`, the Potency result was “inactive [sample A] and inactive [sample B] and active: 27.3 µM [sample C]” in assay [1]; “inactive [sample A] and inactive [sample B] and active: 27.3 µM [sample C]” in assay [4]; “inactive [sample A] and inactive [sample B] and active: 30.6 µM [sample C]” in assay [5].

Turning to `O=c1[nH]cc(F)c(=O)[nH]1`, the Potency entry in assay [4] was “inactive [sample A] and active: 4.85 µM [sample B]”; in assay [5], “inactive [sample A] and active: 21.7 µM [sample B]”.

As to `COc1ccc(C(CN(C)C)C2(O)CCCCC2)cc1` (stereo not given), in assay [16], the Potency entry is “inactive [sample A] and active: 33.2 µM [sample B]”.

In the case of `Nc1nc2c(ncn2COC(CO)CO)c(=O)[nH]1`, the Potency entry in assay [1] is “active: 6.85 µM [sample A] and inactive [sample B]”; in assay [4] it was “active: 21.7 µM [sample A] and inactive [sample B]”.

Take `CCCCc1oc2ccccc2c1C(=O)c1cc(I)c(OCCN(CC)CC)c(I)c1`: the Potency result in [3] was “inactive [sample A] and active: 7.69 µM [sample B] and inactive [sample C]”; in [1] it was “inactive [sample A] and active: 19.3 µM [sample B] and inactive [sample C]”; in assay [4], “inactive [sample A] and active: 3.43 µM [sample B] and inactive [sample C]”; in [5] it was “inactive [sample A] and active: 1.93 µM [sample B] and inactive [sample C]”.

In the case of `COC[C@H]1OC(=O)c2coc3c2[C@@]1(C)C1=C(C3=O)C2CCC(=O)[C@@]2(C)C[C@H]1OC(C)=O` (stereo not given in full), the Potency result in assay [4] is “inactive [sample A] and inactive [sample B] and active: 38.5 µM [sample C]”.

Regarding `Cc1ccc(-n2nc(C(C)(C)C)cc2NC(=O)Nc2ccc(OCCN3CCOCC3)c3ccccc23)cc1`, the Potency entry in assay [1] was “active: 4.32 µM [sample A] and inactive [sample B]”; in assay [4], “active: 17.2 µM [sample A] and inactive [sample B]”.

For the compound `CC(S)C(=O)NCC(=O)O` (stereo not given), the Potency result in [1] was “active: 21.7 µM [sample A] and inactive [sample B]”.

Take `CC(C)(C)CC(C)(C)c1ccc(O)cc1`: the Potency entry in [7] is “active: 38.6 µM [sample A] and inactive [sample B]”; in [12], “active: 38.6 µM [sample A] and inactive [sample B]”.

For `CC12CC3CC(C)(C1)CC(N)(C3)C2`, the Potency result in assay [1] was “inactive [sample A] and active: 27.3 µM [sample B] and inactive [sample C]”.

`COc1cc([C@@H]2c3cc4c(cc3[C@H](O)[C@H]3COC(=O)[C@H]23)OCO4)cc(OC)c1OC`: the Potency entry in [1] was “inactive [sample A] and active: 3.1 nM [sample B]”; in assay [4] it was “inactive [sample A] and active: 6.9 nM [sample B]”; in [5], “inactive [sample A] and active: 15.3 nM [sample B]”.

For the compound `Cn1ccc2cc3c(cc21)CCN3C(=O)Nc1cccnc1`, the Potency entry in assay [4] is “inactive [sample A] and active: 15.3 µM [sample B]”.

`COc1ccc(C(=O)c2c(C)n(CCN3CCOCC3)c3ccccc23)cc1`: the Potency entry in assay [11] is “inactive [sample A] and active: 17.4 µM [sample B]”.
